According to PubChem BioAssay AID504332 (National Center for Advancing Translational Sciences (NCATS), 2011):
In all, about 350,000 compounds went through this assay and about 31,000 (8.9%) were called active. The shares of active, inactive and inconclusive entries below differ from those in the screen. Calls come from the whole dose curve; as a rule, active = well fitted inhibition curve with a large enough effect; inconclusive = small, poorly fitted or top-dose-only effect; inactive = no such curve, though single readings can be large or run the other way. Where the call is inconclusive, the potency comes from a doubtful curve fit. The source holds several records for some structures; these can differ, active in one and inactive in another.
% is set by controls: 0 for no effect and ±100 for the full control effect; potency is the fitted concentration of half-maximal effect; tags give direction and shape of the fitted curve.
Note: nearly all actives have a fitted effect of over 75% in size.

Each molecule was assayed against Histone-lysine N-methyltransferase EHMT2 (Homo sapiens) (UniProt Q96KQ7) (assay: qHTS Assay for Inhibitors of Histone Lysine Methyltransferase G9a). Details: G9a H3K9 monomethylation, AlphaScreen, 2 h; activity, negative = inhibition: at 59 µM (top of the series) unless noted.
Sequence of UniProt Q96KQ7 (Q96KQ7 whole entry, looked up): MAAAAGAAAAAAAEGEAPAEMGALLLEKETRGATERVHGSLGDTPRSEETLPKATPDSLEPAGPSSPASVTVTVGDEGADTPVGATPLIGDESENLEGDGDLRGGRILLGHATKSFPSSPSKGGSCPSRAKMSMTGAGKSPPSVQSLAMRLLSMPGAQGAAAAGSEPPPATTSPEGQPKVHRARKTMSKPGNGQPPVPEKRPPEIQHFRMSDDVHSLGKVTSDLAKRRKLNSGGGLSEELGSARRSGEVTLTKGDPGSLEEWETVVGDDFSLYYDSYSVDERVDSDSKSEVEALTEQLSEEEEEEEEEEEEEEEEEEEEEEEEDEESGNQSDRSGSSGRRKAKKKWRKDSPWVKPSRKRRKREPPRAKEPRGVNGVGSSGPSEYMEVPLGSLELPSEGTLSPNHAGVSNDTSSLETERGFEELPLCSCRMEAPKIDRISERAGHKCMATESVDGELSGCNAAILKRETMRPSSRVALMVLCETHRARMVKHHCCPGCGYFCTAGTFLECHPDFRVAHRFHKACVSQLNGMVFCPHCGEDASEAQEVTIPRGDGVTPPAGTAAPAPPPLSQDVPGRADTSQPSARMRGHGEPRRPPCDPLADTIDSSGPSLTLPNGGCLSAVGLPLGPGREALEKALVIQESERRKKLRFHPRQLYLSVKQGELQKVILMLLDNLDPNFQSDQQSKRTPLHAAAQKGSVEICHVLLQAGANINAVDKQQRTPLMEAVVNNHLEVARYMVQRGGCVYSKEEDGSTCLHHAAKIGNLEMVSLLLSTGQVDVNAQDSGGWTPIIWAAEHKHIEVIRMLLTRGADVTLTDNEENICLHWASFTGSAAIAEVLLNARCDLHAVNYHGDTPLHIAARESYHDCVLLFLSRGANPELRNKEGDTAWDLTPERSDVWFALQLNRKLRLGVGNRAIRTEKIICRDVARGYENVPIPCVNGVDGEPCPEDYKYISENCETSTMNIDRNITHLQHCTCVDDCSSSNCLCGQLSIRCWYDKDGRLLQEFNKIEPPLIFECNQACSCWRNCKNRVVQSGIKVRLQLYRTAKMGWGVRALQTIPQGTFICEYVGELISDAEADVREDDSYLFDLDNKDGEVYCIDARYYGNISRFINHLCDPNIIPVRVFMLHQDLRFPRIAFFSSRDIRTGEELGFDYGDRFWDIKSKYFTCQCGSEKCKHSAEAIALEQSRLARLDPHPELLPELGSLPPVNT
Method in brief: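 G9a (20 nM) preincubated 15 min RT with compounds, then 500 nM biotinylated H3K9 peptide and 20 uM SAM added; 2 h RT reaction. Monomethyl-H3K9 product detected by AlphaScreen with anti-H3K9me1 antibody, streptavidin donor and anti-rabbit IgG acceptor beads.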
`CC(CC(=O)NC1CCCCC1)S(=O)(=O)c1ccc2c(c1)NC(=O)CO2` (configuration not stated) was tested, and the Potency was inconclusive: 79.4 µM [inhibitor, single point]. `COc1ccc(C(CCN2CCCC(C)C2)c2c(OC)cc(OC)c3c(-c4ccccc4)cc(=O)oc23)cc1` (configuration not stated) was tested, and the activity, negative = inhibition was inactive: 13.5% [at 12.7 µM]. With `O=C(CSc1nnc(CNc2ccc(F)cc2)n1Cc1ccccc1)N1CCOCC1` the Potency was inconclusive: 79.4 µM [inhibitor, single point]. With `CC(=O)Oc1cccc(N2C(=O)c3cccc4c([N+](=O)[O-])ccc(c34)C2=O)c1` the Potency was active: 39.8 µM. With `CC(=O)c1cccc(NC(=O)CCc2c(C)nc3c(c(C)nn3-c3ccccc3)c2C)c1` the “activity, negative = inhibition” value was inactive: 3.79%. `CC(=O)/C(C#N)=C1\NC(=O)C(Cc2ccc(C)c(Cl)c2)S1` (configuration not stated) was tested, and the Potency was inconclusive: 25.1 µM [inhibitor, partial curve, poor fit]. `CC1(C)OC(c2ccccc2)=C/C(=C/C=C2C(=O)c3ccccc3C2=O)O1` was tested, and the Potency was active: 2.51 µM. `Nc1nnc(SCC(=O)Nc2nccs2)s1` was tested, and the Potency was inconclusive: 100 µM [inhibitor, single point]. With `CCOC(=O)C1C(=O)Oc2ccc3ccccc3c2C1C1CCOC1=O` (configuration not stated) the Potency was inconclusive: 89.1 µM [inhibitor, single point]. `O=C(OCC(=O)N1CCN(c2ccccc2)CC1)c1ccc2ncsc2c1` was tested, and the Potency was inconclusive: 39.8 µM [inhibitor, single point]. With `N[C@H](CO)C(=O)O` the Potency was active: 11.9 µM. With `Cc1ccc(CCNC(=O)C2CCN(S(=O)(=O)c3ccc4c(c3)NC(=O)CO4)CC2)cc1` the “activity, negative = inhibition” value was inactive: 44.5% [at 102 µM]. For `COc1ccc(O)c(C=Nc2cc(NC(C)=O)c(Cl)cc2Cl)c1`, the “activity, negative = inhibition” value was inactive: -6.98%. `CC(=O)c1cccc(NC(=O)c2ccc(NC(=O)CC3SC(N4CCCCC4)=NC3=O)cc2)c1` (configuration not stated) was tested, and the “activity, negative = inhibition” value was inactive: 5.87% [at 102 µM]. For `CC1CCN(CCCCOc2ccc([N+](=O)[O-])cc2)CC1`, the Potency was active: 11.2 µM. With `COc1ccc(C(=O)c2c(N)c(-c3nc(-c4ccc(OC)cc4)cs3)c3ccccn23)cc1` the “activity, negative = inhibition” value was inactive: 2.17%. With `Cc1cc(C)c2ccc3c(C)c(C)n(C)c3c2n1` the Potency was inconclusive: 3.16 µM [inhibitor, partial curve, poor fit]. With `CCc1cc(OCCOCCN(C)C)ccc1Cl` the Potency was inconclusive: 22.4 µM [inhibitor, single point]. With `CN(C)CCCNC(=O)C1(O)c2cc(Br)ccc2NC(=O)N1c1c(F)cccc1F` (configuration not stated) the “activity, negative = inhibition” value was inactive: 3.79% [at 102 µM]. With `COc1ccc(/C=N/N2CCOCC2)cc1Cn1nc(C)c([N+](=O)[O-])c1C` the Potency was inconclusive: 89.1 µM [inhibitor, partial curve, poor fit]. In the case of `CCOC(=O)CSC1=C(C#N)C(c2ccco2)C(C(=O)OCc2ccccc2)=C(C)N1` (configuration not stated), the “activity, negative = inhibition” value is reported as inactive: -12%. For `CC(C)CC1Nc2ncnc(N3CCCCC3)c2N(Cc2ccccc2)C1=O` (configuration not stated), the Potency was inconclusive: 3.55 µM [inhibitor, partial curve, poor fit]. With `COc1ccc(C(=O)N2CCN(S(=O)(=O)c3ccc(C)cc3C)CC2)cc1OC` the Potency was inconclusive: 50.1 µM [inhibitor, partial curve]. For `COCCn1c(=O)[nH]c(=O)c2c1nc(-c1cc(Br)c3c(c1)OCO3)n2Cc1ccccc1`, the Potency was inconclusive: 89.1 µM [inhibitor, single point]. With `Cc1nn(C)c(C)c1S(=O)(=O)N1CCCC(C(=O)N2CCN(c3ccccc3)CC2)C1` (configuration not stated) the “activity, negative = inhibition” value was inactive: -11.3% [at 102 µM]. In the case of `Oc1ccc(-c2csc(Nc3ncccn3)n2)c(O)c1`, the “activity, negative = inhibition” value is reported as inactive: -7.97% [at 102 µM]. In the case of `O=C(Cc1cccc2ccccc12)Nc1ccc(O)cc1C(=O)O`, the Potency is reported as active: 70.8 µM. For `CCOc1ccc2c(c1)nc(SCC(=O)c1cccs1)n2C`, the Potency was active: 25.1 µM. In the case of `O=C(Nc1nnc(SCc2cccnc2)s1)C1CC(=O)N(c2ccc(F)cc2)C1` (configuration not stated), the Potency is reported as active: 39.8 µM. `CCC(C)[C@H](NC(=O)[C@@H]1Cc2c([nH]c3ccccc23)C2c3ccccc3C(=O)N21)C(=O)NCC1CCCO1` (some centres not stated) was tested, and the Potency was inconclusive: 39.8 µM [inhibitor, single point]. `CC(=O)N(O)CCCCCNC(=O)CCC(=O)N(O)CCCCCNC(=O)CCC(=O)N(O)CCCCCN` was tested, and the Potency was “inactive”. In the case of `COC(=O)COc1ccc(S(=O)(=O)Nc2ccc(NC(C)=O)cc2)cc1`, the Potency is reported as inconclusive: 7.08 µM [inhibitor, single point]. For `Cc1ccc2nc(C)cc(C(=O)N3CCCC(CO)(Cc4ccccc4C)C3)c2c1` (configuration not stated), the Potency was inconclusive: 50.1 µM [inhibitor, partial curve, poor fit]. `COc1ccc(-c2nnc3ccc(SC(C(C)=O)C(C)=O)nn23)cc1OC` was tested, and the Potency was active: 2.24 µM. With `CNC(=O)c1[nH]cnc1C(=O)Nc1ccccc1OC` the Potency was inconclusive: 39.8 µM [inhibitor, single point]. For `Cc1ccc(NC(=O)COC(=O)/C=C/c2c(C)nn(-c3ccc(F)cc3)c2Cl)cc1F`, the “activity, negative = inhibition” value was inactive: 0.942%. With `CN1C(=O)CS/C1=N\NC(=O)COc1cccc2cccnc12` the Potency was active: 3.55 µM. In the case of `CCn1c(-c2ccc(N(C)C)cc2)nc2ccccc21`, the Potency is reported as active: 79.4 µM. With `Cc1ccc(S(=O)(=O)NC(CC(=O)N2CCc3ccccc32)c2ccco2)cc1` (configuration not stated) the Potency was inconclusive: 89.1 µM [inhibitor, partial curve, poor fit]. With `O=C(NNC(=S)NCc1ccccc1)c1ccccc1OC(F)F` the Potency was inconclusive: 28.2 µM [inhibitor, single point]. In the case of `Cc1ccc(S(=O)(=O)c2nc(S(=O)(=O)c3ccccc3)sc2N2CCN(C)CC2)cc1`, the “activity, negative = inhibition” value is reported as inactive: -17.3% [at 102 µM]. With `O=C(O)c1ccc(NS(=O)(=O)c2cccc(C(=O)Nc3cccc(C(=O)O)c3)c2)cc1` the Potency was inconclusive: 56.2 µM [inhibitor, partial curve, poor fit]. For `Cc1ccccc1OCC(=O)NCCN1CCCC1`, the Potency was inconclusive: 100 µM [inhibitor, single point]. `O=C(Cc1noc2ccccc12)NNC(=S)Nc1ccccc1` was tested, and the Potency was inconclusive: 25.1 µM [inhibitor, full curve]. With `Cc1ccc(NC(=O)CN2C(=O)COc3ccc(S(=O)(=O)NC4CCCC4)cc32)cc1Cl` the “activity, negative = inhibition” value was inactive: -4.83%. For `Cc1c(O)c2cccnc2[nH]c1=O`, the “activity, negative = inhibition” value was inactive: 18.1%. `CCN(CC)CCCNc1ccc(-c2nnc(-c3ccc(OCC(C)C)cc3)o2)cn1` was tested, and the Potency was inconclusive: 44.7 µM [inhibitor, partial curve, poor fit].
